# Experimental data: the supplement of paper PMC3334620
# Over roughly 33,000 sequences, “E-score (-0.5 to 0.5)” has its median near -0.012; the highest 2% begin near 0.29. This is one part of the list.
# Biological target: T1, Ybr033w (UniProt P38073)
# T1 sequence: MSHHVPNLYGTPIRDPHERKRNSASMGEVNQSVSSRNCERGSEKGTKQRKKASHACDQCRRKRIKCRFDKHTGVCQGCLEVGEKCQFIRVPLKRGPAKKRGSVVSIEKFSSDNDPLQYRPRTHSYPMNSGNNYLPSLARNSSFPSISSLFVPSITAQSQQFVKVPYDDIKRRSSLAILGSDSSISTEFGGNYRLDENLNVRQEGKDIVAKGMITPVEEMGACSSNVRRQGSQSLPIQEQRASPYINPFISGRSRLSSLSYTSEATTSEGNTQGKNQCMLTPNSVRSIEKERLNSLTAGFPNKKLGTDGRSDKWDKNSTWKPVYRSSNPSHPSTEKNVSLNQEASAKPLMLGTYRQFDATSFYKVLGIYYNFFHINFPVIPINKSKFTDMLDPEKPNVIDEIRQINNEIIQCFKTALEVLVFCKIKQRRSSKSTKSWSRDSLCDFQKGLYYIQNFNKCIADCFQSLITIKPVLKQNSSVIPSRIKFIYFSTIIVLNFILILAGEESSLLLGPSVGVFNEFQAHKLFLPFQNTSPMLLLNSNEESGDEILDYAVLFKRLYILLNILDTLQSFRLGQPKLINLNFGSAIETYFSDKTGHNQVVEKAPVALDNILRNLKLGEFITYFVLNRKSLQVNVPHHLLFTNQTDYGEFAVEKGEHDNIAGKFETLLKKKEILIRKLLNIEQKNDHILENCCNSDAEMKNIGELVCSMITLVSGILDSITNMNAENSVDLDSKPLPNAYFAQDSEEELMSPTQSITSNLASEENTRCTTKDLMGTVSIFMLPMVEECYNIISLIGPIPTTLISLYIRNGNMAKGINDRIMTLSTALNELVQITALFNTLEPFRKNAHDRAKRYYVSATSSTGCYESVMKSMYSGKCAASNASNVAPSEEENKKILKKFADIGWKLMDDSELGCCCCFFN
# Assay: PBM E-score (8-mer binding enrichment) (E-score (-0.5 to 0.5)); higher = stronger / more preferred TF binding; most listed sequences are background and not binding sites
# Conditions: protein concentration: 200 nM; construct: GST-full length
# Experimental: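 Universal 'all 10-mer' protein binding microarrays (Agilent AMADID 015681) probed with GST-tagged S. cerevisiae TFs (full-length or DBD) made by in vitro transcription/translation (PURExpress), about 100-200 nM. Bound TF was detected with fluorescent anti-GST. Each ungapped 8-mer (which stands for itself and its reverse complement) is scored by the PBM enrichment score (E-score), a modified Wilcoxon-Mann-Whitney statistic from -0.5 to +0.5, computed with the Universal PBM Analysis Suite. Scale: above 0.35 generally sequence-specific binding.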
row,Sequence,PBM E-score
1,CGATTGGC,-0.0233
2,ATCACCCG,-0.093
3,CTCCAGCC,-0.211
4,CTCGTCCC,-0.0441
5,ACCTTTCG,-0.132
6,ATTATTTG,0.335
7,GTTCTGGA,0.128
8,ACAAGTAT,0.249
9,AAGAGTGC,-0.054
10,TCAAGGAA,0.12
11,AATCGCCA,0.0302
12,AGTGGTAT,0.0407
13,TCCCGAAA,0.0273
14,AGACTTAC,-0.129
15,ATGCTCCG,-0.212
16,ACCACCCA,-0.102
17,AATTTGGT,0.209
18,ACAGGTAA,0.0373
19,AATGGATG,-0.0366
20,AATGTTTC,0.116
21,ACACAACA,0.126
22,CGACGTTA,0.195

row,Sequence,PBM E-score
1,ACTACGGC,0.0341
2,GACGCGGC,-0.131
3,CAAGCGGC,-0.0713
4,CTCTTTAC,0.00327
5,ACTTGACA,-0.0363
6,GTTGTCAA,-0.00319
7,GCACATGA,-0.102
8,CCCGGTCA,-0.282
9,GCTATTAA,0.201
10,GGAATACC,-0.0772
11,AGAAAACC,-0.0273
12,TCACTTAA,0.192
13,AAGCCCCT,-0.278
14,ATATTGAC,-0.133
15,GTAATACA,0.163
16,ACCATTAG,0.117
17,GTCTCTGA,-0.0937
18,AATGTCAC,0.134
19,CGCTTTAA,-0.0255
20,ATTCTGTC,0.0466
21,ACATAGCT,-0.119
22,TTGACCAA,0.0648

row,Sequence,PBM E-score
1,ACAACCTA,0.0632
2,ACATGGCC,-0.0121
3,ATAAACTA,0.244
4,CGTAACAA,0.194
5,ACGAGTCG,0.0738
6,CGAAGGAG,-0.131
7,TACATCTA,0.197
8,ACTCGAAA,0.0672
9,ACGTCCGC,-0.121
10,GAGAGACC,-0.304
11,ACAACCGT,-0.03
12,CTGTCCGC,-0.103
13,TGATAGCA,0.126
14,AAATGATA,0.345
15,ATGTAAAT,0.245
16,GACAACCC,-0.254
17,GACTTTCA,-0.097
18,ATACACGG,-0.0216
19,AGCGGATG,-0.216
20,CCGAAGGA,-0.178
21,AGAGCTAC,-0.0969
22,ATTCAGAA,0.0954

row,Sequence,PBM E-score
1,CGGCACTC,-0.128
2,CACGATCC,-0.0767
3,GCACAAGC,-0.138
4,AGGGGCCC,-0.382
5,CTAATTAG,0.141
6,AAGCGCTT,0.0897
7,CATGGCCC,-0.116
8,ATCCGGTG,0.136
9,CCGTATAC,0.0358
10,CCGAGACA,-0.144
11,ACTATTCA,0.217
12,CGGTGCAC,-0.174
13,CTATAGCC,-0.215
14,CAACCGCC,-0.109
15,TAGGTTAA,0.182
16,GGGACAAA,0.006
17,CTCCAGAC,-0.17
18,CGGTTCCC,-0.253
19,CTTATGTC,0.029
20,TCCGTTAA,0.244
